PubChem BioAssay AID1346428 (National Center for Advancing Translational Sciences (NCATS), 2018)
Out of some 48,000 compounds screened, about 1,200 (2.5%) were called active. Inconclusive results (about 2%) are left out.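 How the source made its calls: active means activation of at least 60% and not above a set upper limit (about 1 call in 100 departs from these limits); inconclusive means activation of 40% to 60%, or above that upper limit; inactive means activation under 40%.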 The list shows a part of the results.

molecular target: Probable G-protein coupled receptor 32 (Homo sapiens) (UniProt O75388); assay: qHTS for Agonists of Human Resolvin D1 Receptor DRV1; details: CHO-K1 GPR32 beta-arrestin PathHunter luminescence, 90 min; at 76.9 µM; hits give high values; zero percent set by DMSO-only wells; further: 0% is about no effect
Chain of UniProt O75388 (O75388 whole entry, looked up): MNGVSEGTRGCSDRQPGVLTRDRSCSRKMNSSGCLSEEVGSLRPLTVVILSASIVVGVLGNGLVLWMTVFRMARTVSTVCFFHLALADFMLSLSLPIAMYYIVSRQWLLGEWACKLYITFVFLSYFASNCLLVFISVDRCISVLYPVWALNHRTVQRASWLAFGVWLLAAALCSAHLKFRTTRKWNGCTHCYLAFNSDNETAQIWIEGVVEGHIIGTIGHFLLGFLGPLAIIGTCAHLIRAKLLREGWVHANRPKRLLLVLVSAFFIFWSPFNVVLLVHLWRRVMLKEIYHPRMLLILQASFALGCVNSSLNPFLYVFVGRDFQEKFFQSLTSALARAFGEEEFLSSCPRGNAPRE
How it was run: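 Step 1: seed CHO-K1 GPR32 beta-arrestin cells, 2,500/well, overnight at 37 °C. Step 2: add compounds, 90 min at 37 °C. Step 3: detection reagent, 1 h ambient, then luminescence.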

Row | Compound | activation
1 | COc1ccc(S(=O)(=O)c2c(SC)nn(Cc3ccccc3C)c2NC(C)=O)cc1 | inactive: -1.11%
2 | Cn1nc(C(=O)N2CCN(c3ccccc3)CC2)c2c1-c1ccccc1S(=O)(=O)C2 | inactive: -7.79%
3 | COc1ccc(C)cc1NC(=O)c1ccc2c(Cl)c3c(nc2c1)CCC3 | inactive: 13.8%
4 | O=C(O)c1cn(C2CC2)c2cc(Cl)c(F)cc2c1=O | inactive: -4.71%
5 | O=C(CSc1nc2c([nH]c3ccccc32)c(=O)n1-c1ccccc1)N1CCCC1 | inactive: -29%
6 | CCOC(=O)C1CCCN(C(=O)c2ccc3c(c2)N(Cc2ccccc2)C(=O)c2ccccc2S3=O)C1 (stereo not drawn) | inactive: -3.64%
7 | CCCN1CCCc2cc(CN(CCCN3CCOCC3)C(=O)Nc3ccc(CC)cc3)ccc21 | active: 61.3%
8 | Cc1ccc(C)c(NC(=O)Cn2c(=O)n(CCC(=O)NCc3ccc4c(c3)OCO4)c(=O)c3ccccc32)c1 | inactive: -12.9%
9 | COc1cc(C2CC(=O)Nc3c2c(=O)[nH]c2ncnn32)ccc1O (stereo not drawn) | inactive: -0.932%
10 | CCOC(=O)c1cccc(Nc2ccc3cc(S(=O)(=O)N4CCCCC4)ccc3n2)c1 | inactive: -12.5%
11 | O=c1c2oc3ccccc3c2n(Cc2ccccc2)c(=O)n1Cc1ccc2c(c1)OCO2 | inactive: -19.1%
12 | Cc1ccc(OCC(=O)Nc2ccc3nn(-c4ccc(Cl)cc4)nc3c2)cc1 | inactive: -6.86%
13 | COc1cccc(CNC(=O)c2ccc(NC(=O)N3CCCCc4ccccc43)cc2)c1 | inactive: -2.27%
14 | NOCC(=O)O | inactive: -0.924%
15 | COc1cc2c(cc1OC)n(CC(=O)c1ccc(F)cc1)c(=O)n1nc(CCn3nc(C)cc3C)nc21 | inactive: -11.8%
16 | CCCCc1nn2c(=O)cc(COC(=O)c3ccccc3NC(=O)c3ccccc3OC)nc2s1 | inactive: -14.3%
17 | CCCCn1c(=O)c2oc3ccccc3c2n(CC(=O)Nc2cccc(Cl)c2)c1=O | inactive: -9.95%
18 | COc1cccc(NS(=O)(=O)c2ccc3[nH]cc(C(=O)N(C)C4CCCCC4)c(=O)c3c2)c1 | inactive: -1.74%
19 | CCCC(=O)N1c2nc(C(C)C)nn2C2(CCCCC2)[C@@H]2CCCC[C@@H]21 | inactive: -20.3%
20 | COc1ccc2oc(=O)cc(CN3CCN(c4ccccc4F)CC3)c2c1 | inactive: -9.58%
21 | O=C(Nc1cccc(Cl)c1)c1csnn1 | inactive: 20.5%

Row | Compound | activation
22 | Cc1ccc(-c2nc(SCC(=O)NCC3CCCO3)c(-c3ccc(C)cc3)[nH]2)cc1 (stereo not drawn) | inactive: -22.7%
23 | NC(=O)c1cc(S(=O)(=O)NCC2CCC(C(=O)Nc3ccc(Cl)cc3)CC2)cs1 (stereo not drawn) | inactive: 0%
24 | Cc1nnc(N2CCN(C(=O)Nc3cccc(C(F)(F)F)c3)CC2)c2nn(-c3ccccc3)c(C)c12 | inactive: -4.8%
25 | CC(C)c1cnc2c(c1SCc1cccc(C(F)(F)F)c1)c(=O)n(C)c(=O)n2C | inactive: -8.66%
26 | Cc1ccc(-n2c(=O)c3ccc(C(=O)NCc4ccco4)cc3n(Cc3cccc(Cl)c3)c2=O)cc1 | inactive: -2.95%
27 | CCc1nc(SCC(=O)Nc2ccc(NC(C)=O)cc2)n[nH]1 | inactive: 4.78%
28 | CC(C)CCNC(=O)CSCc1cnn(-c2ccccc2)c1-n1cccc1 | inactive: -10.1%
29 | Cc1cccc(-n2c3nc(=O)n(C)c(=O)c-3cc3c(Cl)cccc32)c1C | inactive: -3.92%
30 | O=C(Nc1ccc(F)cc1F)c1noc2c1CCc1ccccc1-2 | inactive: 15.3%
31 | COC(=O)c1ccccc1NC(=O)Cc1noc2ccc(C)cc12 | inactive: -18.7%
32 | COc1ccc(NC(=O)Cn2c(=O)n(Cc3nc(-c4ccccc4)no3)c(=O)c3cc4c(cc32)OCO4)cc1Cl | inactive: -18.8%
33 | Cc1cccn2c(=O)cc(COc3cccc(NC(=O)c4ccccc4F)c3)nc12 | inactive: -13.9%
34 | O=C(Nc1ccc(Cl)c(Cl)c1)N1CCC(c2ccccc2)C1 (stereo not drawn) | inactive: 20.4%
35 | COc1ccc(Br)cc1CNC(=O)CN1CCSc2ccccc21 | inactive: 4.38%
36 | CCc1ccc(NC(=O)CC2C(=O)N(c3ccccc3)C(=O)N2C(C)C)cc1 (stereo not drawn) | inactive: -5.93%
37 | COc1ccc(CNc2ncnc3c2nnn3C)cc1 | inactive: -7.64%
38 | COc1ccc2c(c1)-c1nc(NC(=O)c3ccc(Cl)cc3)sc1CC2 | inactive: -12.4%
39 | Cc1ccc2oc(-c3ccc(Cl)c(NC(=O)c4ccc(-c5ccccc5[N+](=O)[O-])o4)c3)nc2c1 | inactive: 4.09%
40 | Cc1nn(CC(=O)NCc2ccc(OC(C)C)cc2)c(=O)c2c(C)n(-c3ccc(Cl)cc3)nc12 | inactive: 0.841%
41 | COc1ccc(CN2C(=O)C(NC(=O)c3ccccc3C)(C(F)(F)F)N=C2c2ccccc2)cc1 (stereo not drawn) | inactive: -7.11%
42 | CCc1ccccc1NC(=O)Cn1nnc(C(=O)Nc2ccc(C)c(F)c2)c1N | inactive: 0.0537%

Row | Compound | activation
43 | Cc1cccc(NC(=O)Cn2cc(C(=O)c3ccco3)c3ccccc32)c1C | inactive: 11%
44 | CCCCCOc1ccc(C2c3c(oc4ccccc4c3=O)C(=O)N2c2nc(C)c(C)s2)cc1OCC (stereo not drawn) | inactive: -5.24%
45 | CSc1ccc(CCNC(=O)Cn2ncc3c(=O)oc4ccc(C)cc4c32)cc1 | inactive: 4.4%
46 | COc1ccccc1CCNc1ncnc2c1nnn2C | inactive: 0.728%
47 | Cc1ccc(C)c(CN2C(=O)c3ccccc3Sc3ccc(C(=O)NCc4cccs4)cc32)c1 | inactive: -18.9%
48 | CC1CCC(N2CC(=O)N(C3CCCC3)C(c3ccc(Cl)cc3)C2=O)CC1 (stereo not drawn) | inactive: -13.3%
49 | COc1ccc(NC(=O)c2c(N)c(C(=O)c3ccc(C)cc3)n3ccccc23)cc1OC | inactive: 10.2%
50 | CC(=O)c1cccc(NC(=O)c2noc3c2CSc2ccccc2-3)c1 | inactive: -11.1%
51 | CCN1CCN(Cc2nc3cc(NC(=O)c4ccccc4[N+](=O)[O-])ccc3n2CC)CC1 | inactive: 2.68%
52 | Cc1ccc(C)c(NC(=O)C2CCN(c3nn4c(=O)cc(C)nc4s3)CC2)c1 | inactive: -0.249%
53 | Cc1cc(C)c2c(-n3cccc3)c(C(=O)NCCCN3CCCCC3)sc2n1 | inactive: -19.4%
54 | COc1ccc(NC(=O)c2ccc3c(c2)c(C)c(C)n3Cc2ccc(F)cc2)cc1 | inactive: -11.7%
55 | O=C(CCc1ccccc1)NCCc1csc(-c2cccc(F)c2)n1 | active: 85.5%
56 | Cc1ccccc1OCCSc1nc(C)c(Cc2ccccc2)c(=O)[nH]1 | inactive: -11.6%
57 | COc1cccc(CNC(=O)C(C)n2ccc3cc(S(=O)(=O)N4CCCCCC4)ccc32)c1 (stereo not drawn) | inactive: 33.4%
58 | COc1ccc(-c2nn(C)c3sc(C(=O)N4CCN(c5ccccc5F)CC4)cc23)cc1OC | inactive: 20.3%
59 | Cc1ccc(-c2[nH]c3ccccc3c2SCCNC(=O)c2ccc(S(=O)(=O)N3CCOCC3)cc2)cc1 | inactive: -13.1%
60 | COc1ccccc1-c1cc(NC(=O)COc2ccccc2Cl)n(-c2ccccc2)n1 | inactive: 31.6%
61 | Cc1cccc2c1-c1sc(C(=O)NCCc3ccc(Cl)cc3)cc1CO2 | inactive: 17.3%
62 | COc1ccc(-c2nn3c(-c4ccc(C)cc4)nnc3c3ccccc23)cc1 | inactive: -1.19%
63 | COc1cccc(CN2C(=O)c3ccccc3Sc3ccc(C(=O)NCCc4ccc(Cl)cc4)cc32)c1 | inactive: -18.1%

Row | Compound | activation
64 | COc1ccc(C2=Nn3c(nc4sc(C(=O)Nc5cccc(C)c5)c(C)c4c3=O)SC2)cc1 | inactive: 6.99%
65 | COc1ccc(NC(=O)c2ccc3c(c2)c(C)c(C)n3Cc2ccc(F)cc2)c(OC)c1 | inactive: -19.8%
66 | COc1ccc(NC(=O)Cn2c(=O)n(-c3ccc(CC(=O)NCC4CCCO4)cc3)c(=O)c3ccccc32)c(OC)c1 (stereo not drawn) | inactive: -25.9%
67 | CCCOc1ccc(OC(=O)c2c(-c3ccccc3Cl)noc2C)cc1 | inactive: -7.62%
68 | COc1ccc(NC(=O)c2cc3c([nH]c2=O)CC(c2ccccc2)CC3=O)cc1 (stereo not drawn) | inactive: -11.9%
69 | CCc1ccc(OCC(=O)N(Cc2ccco2)Cc2ccco2)cc1 | inactive: -8.44%
70 | Cc1cc(C)cc(OCc2cc(=O)n3cc(C)sc3n2)c1 | inactive: -14.5%
71 | COc1ccccc1NC(=O)CCn1nc(-c2ccccc2)c2ccccc2c1=O | inactive: -24.5%
72 | O=C(C1CCN(c2nc3ccccc3[nH]2)CC1)N1CCN(c2ccccc2)CC1 | inactive: -4.23%
73 | CCOC(=O)c1c(C)n(-c2ccccc2)c2ccc(OC(=O)c3ccc(OCC)c(OCC)c3)cc12 | inactive: 17.8%
74 | Cc1cccc(-c2noc(-c3ccc(NCC4CCCO4)c([N+](=O)[O-])c3)n2)c1 (stereo not drawn) | inactive: -0.181%
75 | COc1ccccc1N1CCN(c2nc3ccc(C)cc3nc2-n2nc(C)cc2C)CC1 | inactive: -3.4%
76 | CCCN1CCN(CCCNC(=O)c2ccc3c(c2)sc2nc(-c4ccc(C)cc4)cn23)CC1 | inactive: -7.94%
77 | Cc1cccc(NCc2nnc3n2CCCCC3)c1C | inactive: 8.55%
78 | CN(C(=O)c1ccc2c(c1)N(Cc1ccccc1F)C(=O)c1ccccc1S2)C1CCCCC1 | inactive: -40.2%
79 | CN(C)S(=O)(=O)c1ccc2c(c1)N(CC(=O)N1CCCCC1)CCS2 | inactive: 4.93%
80 | Cc1ccc(-c2nnc(Nc3ccc(Cl)cc3)c3ccccc23)cc1S(=O)(=O)N1CCOCC1 | inactive: -10.9%
81 | Cn1cc(S(=O)(=O)c2ccccc2)c(=O)c2cc(F)c(N3CCN(c4ccc(F)cc4)CC3)cc21 | inactive: -11%
82 | O=C(Nc1c(C(=O)N2CCC(N3CCCCC3)CC2)oc2ccccc12)c1c(F)cccc1F | inactive: -5.8%
83 | Cc1ccc(NC(=O)Cn2c(=O)n(CCC(=O)NCCc3ccccc3)c(=O)c3ccccc32)cc1 | inactive: 14.8%
